# Test results reported in PubChem BioAssay AID1745853 (National Center for Advancing Translational Sciences (NCATS), 2022).
# The other results are listed elsewhere or left out. Further columns of the screen follow, without active or inactive calls.
# Columns and labels:
# Test in all cases: Primary Screen for Target Class Profiling of Small Molecule Inhibitors of Methyltransferases
# [1] = target: Glycine N-methyltransferase (Homo sapiens) (UniProt Q14749); conditions: purified enzyme, MTase-Glo SAH luminescence; measured here: GNMT inhibition; at 40 µM; stronger effect = lower value
# Procedure, shortened: (§1)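 Each enzyme was reacted with SAM and its substrate, with compounds tested once at 40 uM; SAH formed was read by MTase-Glo luminescence.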
# [2] = target: Guanidinoacetate N-methyltransferase (Homo sapiens) (UniProt Q14353); conditions: purified enzyme, MTase-Glo SAH luminescence; measured here: GAMT inhibition; at 40 µM; stronger effect = lower value
# Procedure, shortened: as §1
# [3] = target: Histamine N-methyltransferase (Homo sapiens) (UniProt P50135); conditions: purified enzyme, MTase-Glo SAH luminescence; measured here: HNMT inhibition; at 40 µM; stronger effect = lower value
# Procedure, shortened: as §1
# [4] = target: Nicotinamide N-methyltransferase (Homo sapiens) (UniProt P40261); conditions: purified enzyme, MTase-Glo SAH luminescence; measured here: NNMT inhibition; at 40 µM; stronger effect = lower value
# Procedure, shortened: as §1
# [5] = target: Phenylethanolamine N-methyltransferase (Homo sapiens) (UniProt P11086); conditions: purified enzyme, MTase-Glo SAH luminescence; measured here: PNMT inhibition; at 40 µM; stronger effect = lower value
# Procedure, shortened: as §1
# On the % scale 0 is the no-effect control and ±100 the full control effect.
Structure (SMILES),"activity change, negative = inhibition [1] [%]","activity change, negative = inhibition [2] [%]","activity change, negative = inhibition [3] [%]","activity change, negative = inhibition [4] [%]","activity change, negative = inhibition [5] [%]"
Cc1cnc(C2CC2)n1C1CCN(C(=O)C2CC2)CC1,-1.91,-1.04,-32.4,-2.81,14.5
C[C@@H]1C(=O)O[C@H](C)[C@H]1CC(=O)[C@](C)(O)[C@H]1CC[C@@]2(O)C3=CC(=O)[C@@H]4C[C@@H](O)[C@@H](O)C[C@]4(C)C3CC[C@]12C (some centres undefined),-3.15,-3.43,7.72,-17.3,-11.8
CC1(C(=O)NC2CC2)CCCc2cnc(Nc3cccnc3)nc21 (centres undefined),-11.5,-12.1,-4.67,-22,-13.6
CCN1CC2(CCN(Cc3nc(COC)no3)CC2)CC(c2ccccc2)C1=O (centres undefined),-5.37,-7.33,-2.38,-11.1,-5.46
COc1ccc(OC)c(S(=O)(=O)N2CCC([C@H]3[C@@H](OC)C(=O)N3C(C)C)CC2)c1,-6.87,2.11,-5.02,-7.65,-7.18
O=S(=O)(NC[C@H]1O[C@@H](CO)[C@@H](O)[C@H]1N1CCOCC1)c1ccc(Cl)cc1,-2.53,-6.88,-0.493,-7.1,-3.04
COc1ccc(C2(CNC(=O)[C@](C)(Cc3c[nH]c4ccccc34)NC(=O)Nc3ccc([N+](=O)[O-])cc3)CCCCC2)nc1,-2.63,-16.4,5.52,-27.7,-14.6
CCCn1c(=O)c2cc(F)ccc2n2c(SCc3cccc(OC)c3)nnc12,-2.87,1.35,6.56,-1.31,7.01
CCOCCCN1C(=O)c2cc3sccc3n2CC1(C)C(=O)NC1CCCCCC1 (centres undefined),-4.39,1.97,-8.11,2.69,-2.31
CC(O)/C=C/C1(O)C(C)C(O[C@@H]2O[C@H](CO)[C@@H](O)[C@H](O)[C@H]2O)C(O)CC1(C)C (some centres undefined),-1.97,-11.4,-4.43,-22,-2.35
O=c1onc2n1-c1cc(Br)ccc1OC2,-6.31,3.29,3.5,-6.82,-0.51
COC(=O)c1ccc(N2CCN(C)CC2)c(NC(=O)c2cccc(OC)c2)c1,-1.27,4.85,2.21,-14.9,-6.63
c1cc(CN(CCN2CCCCC2)CC2CCCN(C3CCCC3)C2)c2nonc2c1 (centres undefined),0.46,0.945,-18.4,-4.98,-0.576
COC[C@@H]1CN(S(=O)(=O)c2cnc[nH]2)C[C@H]1c1ccccn1,-4.42,18.3,-3.27,-7.28,1.15
COc1cc(C2CC(=O)Nc3c2cc(Br)c2ccccc32)cc(OC)c1OC (centres undefined),-3.7,-5.4,7.04,-14.2,-0.406
Cc1ccc(CNC(=O)N2CCC(c3nc(CCOCC4CCOCC4)no3)C2)cc1 (centres undefined),-1.73,-7.46,-1.35,-1.76,-3.23
O=C(Cn1nc2n(CCc3ccccc3)c(=O)c3ccccc3n2c1=O)Nc1ccc2c(c1)OCCO2,3.31,5.48,2.24,-0.114,2.84
CCCN1C(=O)c2c(C(=O)NCc3ccccc3OC)ncn2CC1(C)C(=O)NC1CCCC1 (centres undefined),-1.74,0,3.16,-1.29,3.98
CCc1nc2c(c(-c3ccc(Cl)cc3)n1)CN([S+](=O)([O-])c1c(C)noc1C)CC2,-3.46,-4.37,-1.76,-8.01,-30.8
Cn1cnc(C(=O)N2CCC3(CC2)CC(N(Cc2ccccc2)C2CC2)CCO3)c1 (centres undefined),-3.89,-0.733,-1.13,-7.24,-1.67
CCCSCCCNC(=O)c1cc2n(n1)CC(C)(C(=O)NCc1ccc(C)cc1)N(C)C2=O (centres undefined),6.9,1.09,7.99,6.34,5.79
CC(C)CCn1c(=O)c2ccccc2n2c(CCC(=O)NCc3ccc(Cl)cc3)nnc12,-7.31,3.39,1.85,1.24,-4.03
CC(C)Cn1c(=O)c2ccc(C(=O)NC(C)C)cc2n2c(=O)n(CC(=O)NC3CCCCC3)nc12,1.9,5.92,2.81,0.099,0.614
CCOC(=O)NCCCC(=O)NCCc1ccccc1,3.43,–,20.4,0.041,7.54
O=C(O)c1n[nH]c2c1C[C@H]1C[C@@H]21,-0.067,2.16,9.56,-8.51,3.25
O=C(c1ccc2c(=O)nc3c(-c4ccccc4F)n[nH]n3c2c1)N1CCN(c2ccccn2)CC1,-12.4,1.15,3.14,-1.75,2.96
O=C(c1cn(CCC2CCCCN2)nn1)N1CCc2nc[nH]c(=O)c2CC1 (centres undefined),-0.278,-0.969,-8.01,-0.875,-6.7
O=C(Nc1ccc2ncnc(N3CCCCC3)c2c1)c1cc(F)ccc1F,-91.6,-89.1,-92.3,-90.6,-80.4
